Read counts are not given, so values of variants with three or more changes are uncertain.

B1: OR4K15 (parent)
chain: GUUAACGGUCAUAGGCCAUGGAAACUAGGAGCACCAUUUCGCUGCCAGUGAAGAAAUGAACAAAGAAAAUCUGGGCCAGGCAGGCAUCAAAAGAAAUAGUCUUGCGCUCAACCAGAAAGUCUGUAAUCAUUUUAAGGGUA

Variants of B1 are the subject of this series. Kind of series: self-cleavage, relative activity (ratio to wild type); higher = more cleavage; in vitro, sequencing; the parent is a self-cleaving ribozyme.
Turning to G7A U57A A64G U103C, the self-cleavage is 0.79.
Next, A5G U12A A69G G84A U127A: 1.12; G7A A11U A36G U70C A94U A95G A111G A118G: 0.01; A5G U9C U49C U100C: 1.34.
The same measure for U9A C40U U130C: 0.54.
For the variant G7A A11G A24G A98U A111G, the self-cleavage was 0.04.
The same measure for A5G U87C U127C: 0.79; for G7A A27G A30G A129G: 0.39; for C6U U12C U26C A30G A86G U103C A140U: 0.3.
Next, U9A A59G U132A A140G: 1.37; G7U A94G A118G: 1.14.
Consider C6A A11C U72C A92G A96G, for which the self-cleavage is 0.08.
Next, U9A G41A A86G A89U C105U A118G: 0.06.
Take A5G U102C U124C A135U: the self-cleavage stood at 1.48.
Take U9A A23U C32U A94G: the self-cleavage was found to be 1.02.
As to A5G U38C A82G A86G, the self-cleavage was 0.17.
The same measure for G8A A47G A62G A96G A110G: 0.25; for G7U A13U A51U A117G: 1.29.
Turning to G7A A69U G115A C121U A129U, the self-cleavage turned out to be 0.06.
Consider A5U A63G A96G, for which the self-cleavage is 1.42.
With A5G U38C A56G A89G A111G, the self-cleavage was 0.15.
Next, A5U U37C U49G A96C: 1.19; A5G U37C A66G A90G: 1.74; A5G U38C G44A A69G: 1.37.
The same measure for G8A A54G U120C A129G: 0.4; for A5G U37C U38C U122C: 0.74.
The same measure for A5G U26C A62G A82U: 0.15.
For the variant G7A A51G U70A A129G, the self-cleavage was determined as 0.3.
With U9A A33G U37C A52G U87C, the self-cleavage stood at 0.7.
Next, A5G U38A A60U A62C A82G U100C: 1.17; G7A G31U U39C A114U: 0.19; G7U A24G G80A U120C: 0.21.
The same measure for A5G U38C A92G U108C: 0.
For G7A U9C U38C U49G U87C U131C, the self-cleavage was 0.7.
With U9A A18U A55U A78U, the self-cleavage is 0.3.
With U9A A13G A23G U43C U72C, the self-cleavage was 0.57.
Next, U9C A11G A30U A54U A67G C128U: 1.45.
On to U9A A22G U39C A68G A129G U132C, for which the self-cleavage is 1.22.
The same measure for A5U A54G A69U A89U: 1.77.
Next, A5U A69G G73A: 0.18.
With A5U A52U A68G, the self-cleavage worked out at 1.07.
Consider A5G U39C A66G A110U, for which the self-cleavage was determined as 1.33.
With A5G U9C U37C G84A A118G, the self-cleavage turned out to be 1.14.
In the case of U9A A51G U122A, the self-cleavage stood at 0.81.
The same measure for C6A A67G A96G U102C: 1.48; for A5U A33U U102C: 1.74; for G7U A11G U39C A110U: 0.77.
The same measure for U9A A92U A111G: 0.05.
Take A5G U9C U38C U39A U72A A92G A117G: the self-cleavage worked out at 0.25.
U9A A47G C113U U127C: the self-cleavage was 0.01.
Next, A5G U12A A69G: 1.28.
Next, C6U A59G A67G U130C: 1.34; G7U U12A A18G C35A U122C: 1.5.
For A5G U38C A63G A94G A126G, the self-cleavage was 1.17.
For the variant G7U A30G A114G, the self-cleavage was determined as 0.77.
Next, C6U A52U A62U A95G U102C: 1.24.
Next, G7U A91G A98G U103C: 0.09.
Turning to G8A A66G U70C A78G, the self-cleavage worked out at 0.25.
For G7A U26C U43C A90G C101U, the self-cleavage was determined as 0.08.
As for A5U A18U U37C A51G, the self-cleavage was found to be 0.84.
Turning to G8A U39C A63G, the self-cleavage came to 2.06.
Next, U9A A18G U38C A135G: 0.5; G8A A11G A66U: 1.58; U9A U72C A94G U122A A135G: 0.27.
For G7A A92G C105U A140U, the self-cleavage stood at 0.09.
Next, U9A U19C A30G U87A A125U: 1.77; C6U G74C G75A: 0.26; A5U A24G A91G A96G: 1.51.
Turning to U9A A11U A126G, the self-cleavage came to 0.77.
With A5G U43A A69U, the self-cleavage turned out to be 1.41.
Take G7A U37C A94G U97C U102C U108C: the self-cleavage turned out to be 0.01.
Consider A5G U39C U108C A126U, for which the self-cleavage amounted to 0.02.
The same measure for U9A A47U A51G A56C A63G A90G: 0.41; for U9A A11U A22C U108A: 0.05; for A5U A18G U49C A110G: 0.03.
The same measure for A5U A36G A51U A78G G136A: 0.56.
The same measure for A5G U12C A23G A52G A66G U87C: 1.24; for G7U U26C A36G A56G U72A: 0.21; for A5U U102A A111G A116G: 0.03.
Regarding G7U U57C U108C A117G, the self-cleavage came out at 0.02.
Next, A5G U9C A78U A126G: 0.3; A5G U9C U43G A55G U122C: 0.77; U9A U97G A110G: 0.08.

For the origin of these results see the RNAGym collection of RNA variant scans (doi:10.7554/elife.90254).
